According to paper PMC4336329 (PLoS ONE, 2015):
Among all 310,000 compounds or so, about 14,000 (4.5%) showed an effect of 50% or more. The effect is printed as a negative number. This is one part of the list.

target: human ether-à-go-go-related gene (hERG) potassium channel (human, UniProt Q12809); test: primary screen, population patch clamp on CHO cells stably expressing hERG
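Further: peak tail current of the secondary pulse compared with the same well before compound.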

Sequence of human ether-à-go-go-related gene (hERG) potassium channel (Q12809 whole entry, looked up): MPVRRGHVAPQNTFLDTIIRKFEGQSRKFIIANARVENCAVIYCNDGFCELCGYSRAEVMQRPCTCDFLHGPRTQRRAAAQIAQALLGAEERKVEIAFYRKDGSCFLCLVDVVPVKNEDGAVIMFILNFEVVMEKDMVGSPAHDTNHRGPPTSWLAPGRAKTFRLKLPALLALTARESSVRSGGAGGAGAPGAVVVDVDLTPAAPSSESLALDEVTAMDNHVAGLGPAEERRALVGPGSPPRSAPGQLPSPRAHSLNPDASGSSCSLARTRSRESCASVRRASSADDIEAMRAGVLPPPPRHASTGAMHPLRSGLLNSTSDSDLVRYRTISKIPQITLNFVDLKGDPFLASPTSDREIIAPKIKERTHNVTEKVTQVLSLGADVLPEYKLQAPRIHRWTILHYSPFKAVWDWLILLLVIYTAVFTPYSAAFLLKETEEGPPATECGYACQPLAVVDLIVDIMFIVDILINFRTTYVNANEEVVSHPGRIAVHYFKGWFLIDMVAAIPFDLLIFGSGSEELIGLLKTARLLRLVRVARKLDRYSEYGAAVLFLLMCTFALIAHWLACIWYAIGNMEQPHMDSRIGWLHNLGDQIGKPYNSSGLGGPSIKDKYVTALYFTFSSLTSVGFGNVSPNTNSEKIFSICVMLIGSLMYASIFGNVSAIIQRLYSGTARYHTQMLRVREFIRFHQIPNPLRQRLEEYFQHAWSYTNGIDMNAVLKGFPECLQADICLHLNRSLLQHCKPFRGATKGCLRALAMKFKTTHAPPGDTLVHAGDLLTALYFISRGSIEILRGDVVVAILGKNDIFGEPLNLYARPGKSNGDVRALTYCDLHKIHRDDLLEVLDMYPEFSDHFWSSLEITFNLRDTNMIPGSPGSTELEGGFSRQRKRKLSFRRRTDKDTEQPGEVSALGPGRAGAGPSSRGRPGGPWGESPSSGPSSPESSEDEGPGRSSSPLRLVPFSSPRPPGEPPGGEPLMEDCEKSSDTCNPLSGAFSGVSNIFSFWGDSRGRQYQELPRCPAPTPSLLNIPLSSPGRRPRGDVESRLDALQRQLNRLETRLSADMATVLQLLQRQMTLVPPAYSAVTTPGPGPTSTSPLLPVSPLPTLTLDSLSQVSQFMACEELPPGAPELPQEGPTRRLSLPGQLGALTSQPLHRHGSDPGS

| SMILES | hERG current change (%, negative = inhibition) at 10uM |
| --- | --- |
| Cc1nn(CC(=O)NCCCN2CCCCC2C)c(=O)c2cccn12 (stereo not shown) | 21.6% |
| O=C(Nc1cccc([N+](=O)[O-])c1)c1ccc2snnc2c1 | -10.4% |
| Cc1ccc(NC(=S)/C(=C(\[O-])c2ccc(Cl)s2)[n+]2cccc(CO)c2)cc1C | 11.7% |
| COC(=O)c1sccc1NC(=S)N1CC(C)CC(C)C1 (stereo not shown) | 9.72% |
| COCCCn1c(C)cc(C(=O)COC(=O)CCc2nc3ccccc3c(=O)[nH]2)c1C | 3.27% |
| COC(=O)C1=C(C)N(C(C)C)C(=O)C1(NC(=O)C1CCCCC1)C(F)(F)F (stereo not shown) | -1.54% |
| CCOC(=O)c1c(NC(=O)c2ccccc2C(=O)O)sc2c1CCCC2 | 18% |
| CCCc1cc(NCC2CCCO2)n2c(nc3ccccc32)c1C#N (stereo not shown) | -66.5% |
| CCOc1ccc(-c2nn[nH]n2)cc1 | -9.16% |
| CC1(C)CC(=O)C=C(NC2CC(C)(C)NC(C)(C)C2)C1 | 11.5% |
| COc1ccccc1NCCC(=O)OCC(=O)NC1CC1 | 7.08% |
| Clc1ccc(-c2ncc3ccccn23)c(Cl)c1 | 8.69% |
| CC(OC(=O)CCC(=O)c1ccc(Cl)s1)C(=O)NC1(C#N)CCCCC1 (stereo not shown) | -19.1% |
| S=C(Nc1ccccc1)Nc1ccc(Br)cc1 | 18% |
| COc1ccc(-c2cc3ncc(C(C)=O)c(C)n3n2)cc1 | 35.1% |
| COc1ccccc1C(=O)NN1C(=O)C2C3C=CC(O3)C2C1=O (stereo not shown) | 11% |
| COc1ccc(NC(=O)c2cc(F)cc(F)c2)cc1Cl | 9.25% |
| O=C(Cc1ccccc1)NN1C(=O)C2C3C=CC(C4CC34)C2C1=O (stereo not shown) | 7.9% |
| COc1ccccc1Nc1nc(Cl)nc(Nc2ccccc2OC)n1 | -5.92% |
| COc1c(C)cc(S(=O)(=O)NCc2ccccn2)c(C)c1C | 14.2% |

| SMILES | hERG current change (%, negative = inhibition) at 10uM |
| --- | --- |
| CC(C)(C)c1cc(CCC(=O)NNC(=O)c2ccncc2)cc(C(C)(C)C)c1O | -5.19% |
| CC(Nc1ncnc2nc[nH]c12)c1ccccc1 (stereo not shown) | -0.89% |
| Cc1c[n+]([O-])ccc1Oc1ccc([N+](=O)[O-])cc1 | -9.03% |
| O=C(CSc1nnnn1C1CCCC1)Nc1ccccc1N1CCOCC1 | -13.9% |
| COCC(=O)Oc1c(Sc2ccccc2[N+](=O)[O-])c(C)nn1C(C)(C)C | 7.51% |
| Cn1cnnc1SCC(=O)NCCC(c1ccccc1)c1ccccc1 | 7.79% |
| CC(=O)Nc1ccc(S(=O)(=O)N2CCCC2C(=O)Nc2ccc3c(c2)OCCO3)cc1 (stereo not shown) | 21% |
| O=C(CCNC(=O)c1ccccc1Cl)Nc1nc(-c2ccc(F)cc2)cs1 | -38% |
| Cl.OCCN(CCO)CC(O)COCCC12CC3CC(CC(C3)C1)C2 (stereo not shown) | 3.74% |
| Cc1cc(S(=O)(=O)Nc2cccc(Cl)c2)c(C)s1 | 8.15% |
| CCN(CC)CCOc1ccc2nc(N(C)C)sc2c1.Cl | 11.1% |
| O=c1nc2ccccc2c2n1CC(CN1CCN(c3ccc(F)cc3)CC1)N2 (stereo not shown) | -68.6% |
| CC(C)(C)c1ccc(S(=O)(=O)NNC(=O)C2CCN(Cc3cccc(F)c3)CC2)cc1 | -12.8% |
| COc1ccc(C(=O)NC2CCN(S(=O)(=O)c3ccc(C)cc3)CC2)cc1 | 10.7% |
| CN1CCN(C/C(=C2/N=C(c3ccccc3)OC2=O)N(C)C)CC1 | -44.3% |
| COc1ccc(C(=O)Nc2ccccc2C(=O)NC(C)C)cc1OC | -6.82% |
| COC(=O)/C=C1\C(=O)N(c2nc3ccccc3s2)C(=S)N1c1ccc(F)cc1 | 17.7% |
| COc1cccc(-n2c(Cc3cc(=O)[nH]c(=O)[nH]3)nnc2SCc2cccc(C(F)(F)F)c2)c1 | 15.8% |
| Cn1nc(C(=O)NCCN2CCOCC2)c2ccccc2c1=O | 21.2% |
| O=C(CCCSc1nc2ccccc2[nH]1)NCc1ccccc1 | -23.9% |

| SMILES | hERG current change (%, negative = inhibition) at 10uM |
| --- | --- |
| CCn1c(SCC(=O)c2cc(C)ccc2C)nc2cc(S(=O)(=O)N3CCOCC3)ccc21 | -7.65% |
| CN(CC(=O)Nc1ccc(C#N)cc1)Cc1ccc(Cl)cc1 | -68.6% |
| CC(NC(=O)/C(C#N)=C/c1ccc(C(=O)O)cc1)c1ccccc1 (stereo not shown) | -14.5% |
| COC(=O)C1=C(c2ccc(-c3ccccc3)c(F)c2)C[C@@H]2CC[C@H]1N2C(=O)NCC1CC1 | 9.3% |
| Cc1[nH][nH]c(=O)c1N=Nc1ccccc1C#N | -3.8% |
| CCCCC(=O)Nc1ccc(NC(=S)NC(=O)c2cccs2)cc1OC | -3.91% |
| NNC(=O)c1cc(-c2ccccc2)sc1N | 9.61% |
| Oc1[nH]c(=S)sc1/C=C1\C(c2ccccc2)=Nc2ccccc21 | 34.2% |
| Cc1c(C)c2c(C)[nH]nc2oc1=O | 14.7% |
| O=C(CNC(=O)c1ccc(N2C(=O)c3ccccc3C2=O)cc1)OCC(=O)c1ccc(Cl)cc1 | -0.893% |
| COc1ccccc1NC(=S)N1CCN(c2ccccn2)CC1 | 9.3% |
| CCN1C(C#N)=C(C#N)N=C(C)CC1(C)C | 17.7% |
| O=C(O)c1ccccc1C(=O)NNC(=O)C(c1ccccc1)c1ccccc1 | 19.9% |
| CC(NC(=O)CCSCCC(=O)NC(C)c1ccccc1)c1ccccc1 (stereo not shown) | -0.992% |
| Cc1ccc(C(=O)NC2CCN(CC(=O)Nc3cccc([N+](=O)[O-])c3)CC2)cc1 | -71.4% |
| Cc1ccc(NS(=O)(=O)c2cccc(C(=O)NCC(c3ccco3)N3CCCCC3)c2)cc1 (stereo not shown) | -20.1% |
| O=C(Nc1ccccc1)c1nc[nH]c1C(=O)N1CCN(c2ccccc2)CC1 | -1.35% |
| O=C1C=CC(=O)C(C2=C3C(=O)N(CCc4ccccc4)CC(=O)N3CCC2)=C1 | -11.9% |
